# The list shows a part of the results. These are noisy estimates, calculated here from bound and input reads.
# Molecular target: T1, Pho4 (S. cerevisiae) (UniProt P07270)
# T1 sequence: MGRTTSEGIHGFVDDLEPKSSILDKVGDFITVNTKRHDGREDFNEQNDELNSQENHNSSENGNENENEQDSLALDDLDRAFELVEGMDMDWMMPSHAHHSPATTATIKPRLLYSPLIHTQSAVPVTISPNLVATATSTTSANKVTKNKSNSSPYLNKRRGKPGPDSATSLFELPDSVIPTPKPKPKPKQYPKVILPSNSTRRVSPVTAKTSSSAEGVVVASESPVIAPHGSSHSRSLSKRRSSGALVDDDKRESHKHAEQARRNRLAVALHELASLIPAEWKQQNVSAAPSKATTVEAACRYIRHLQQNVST
# Assay: relative binding free energy (BET-seq); higher = weaker binding
# Details: reference: library average
row,Sequence,relative binding free energy
1,GTCAGCACGTGTGATT,0.11 kcal/mol
2,TGATGCACGTGTGAGT,-0.05 kcal/mol
3,TTGATCACGTGAGTGA,0.31 kcal/mol
4,GGCAGCACGTGGTATT,-0.06 kcal/mol
5,TCCGTCACGTGCGGGG,0.1 kcal/mol
6,TTACACACGTGTGAGG,0.08 kcal/mol
7,TGTTGCACGTGCATTT,0.02 kcal/mol
8,TAATGCACGTGAGATT,0.17 kcal/mol
9,ATCTACACGTGGGTGT,-0.1 kcal/mol
10,CCATGCACGTGTGGGT,-0.05 kcal/mol
11,ATAGGCACGTGATTAA,0.05 kcal/mol
12,AGAGTCACGTGTATGA,0.14 kcal/mol
13,GCTTGCACGTGGGGGT,-0.07 kcal/mol
14,GGTTACACGTGTTAAT,0.41 kcal/mol
15,ACGTGCACGTGGTGTA,-0.12 kcal/mol
16,TTGTCCACGTGGGATA,-0.11 kcal/mol
17,GGGATCACGTGAAGAG,0.3 kcal/mol
18,AGATGCACGTGGTTAC,-0.01 kcal/mol
19,GTGGGCACGTGGGGCT,-0.17 kcal/mol
20,TGATCCACGTGTAGTG,0.05 kcal/mol
21,TTTGCCACGTGTTTAA,-0.06 kcal/mol
22,AGGGGCACGTGAGAAG,0.03 kcal/mol
23,GTCAGCACGTGTAGGT,-0.02 kcal/mol
24,AGTAACACGTGTAGAA,0.21 kcal/mol
25,ATAGTCACGTGTAATA,0.13 kcal/mol

row,Sequence,relative binding free energy
1,TATGTCACGTGTGACG,0.19 kcal/mol
2,TTGAGCACGTGCTTAT,-0.1 kcal/mol
3,TTTTCCACGTGGATTA,0.18 kcal/mol
4,ATGGCCACGTGGGTGT,-0.22 kcal/mol
5,TGGTTCACGTGATGGT,0.47 kcal/mol
6,TGGCCCACGTGTTGTG,-0.2 kcal/mol
7,TGTATCACGTGTGGAG,0.25 kcal/mol
8,GTATTCACGTGTGTGA,0.34 kcal/mol
9,GTTGACACGTGTTGCG,0.23 kcal/mol
10,GGTGTCACGTGACTAT,0.22 kcal/mol
11,AAGGTCACGTGCATGG,0.15 kcal/mol
12,TAATTCACGTGGGCAG,0.22 kcal/mol
13,ATGTTCACGTGAGTAC,0.26 kcal/mol
14,GCATTCACGTGAGAGT,0.68 kcal/mol
15,GGAGCCACGTGTTGCG,0.13 kcal/mol
16,TCAGTCACGTGTTATG,0.14 kcal/mol
17,TTGGACACGTGGGATT,0.01 kcal/mol
18,AATGGCACGTGAAGGT,0.23 kcal/mol
19,TGGGGCACGTGGCTTG,-0.13 kcal/mol
20,CTGTGCACGTGAATTT,0.28 kcal/mol
21,AAAGTCACGTGGGGAG,-0.01 kcal/mol
22,GTCAGCACGTGTTTGG,-0.02 kcal/mol
23,GGTGGCACGTGTGGAT,-0.07 kcal/mol
24,TGATACACGTGCGGGT,0 kcal/mol
25,GGGGGCACGTGGGAAA,-0.06 kcal/mol

row,Sequence,relative binding free energy
1,GTATACACGTGCGTTT,0.21 kcal/mol
2,TGTTTCACGTGCGGAA,0.3 kcal/mol
3,AGGGGCACGTGTGTAC,-0.14 kcal/mol
4,GACGGCACGTGATGTT,0.03 kcal/mol
5,TTTTTCACGTGAGGAT,0.38 kcal/mol
6,TCAGGCACGTGATTAT,0.1 kcal/mol
7,ATGCACACGTGAGTGG,0.08 kcal/mol
8,GGTAGCACGTGGGATT,-0.08 kcal/mol
9,TTCGACACGTGTCTGG,0.16 kcal/mol
10,TAGTGCACGTGTGTTA,0 kcal/mol
11,AAAATCACGTGTATGG,0.11 kcal/mol
12,TGTTTCACGTGCAGGA,0.11 kcal/mol
13,TCGGTCACGTGAAAGT,0.51 kcal/mol
14,TTAGGCACGTGTACTT,-0.1 kcal/mol
15,TTTTACACGTGGTTGG,0.17 kcal/mol
16,TGGTGCACGTGGACTA,-0.1 kcal/mol
17,AGCGCCACGTGGGGAG,-0.27 kcal/mol
18,AATCGCACGTGTATGT,0 kcal/mol
19,ATGTGCACGTGGATGA,-0.19 kcal/mol
20,ACAGGCACGTGTAAGG,0.11 kcal/mol
21,GGAGACACGTGGTTGA,-0.14 kcal/mol
22,TATTTCACGTGGATTT,0.27 kcal/mol
23,TTTGACACGTGGGTTG,-0.05 kcal/mol

# — the BET-seq Pho4 binding data (Le et al. 2018)
